Measurements: publication PMC6919601, “Identification of Plasmodium dipeptidyl aminopeptidase allosteric inhibitors by high throughput screening” (PLoS ONE, 2019)
In all, about 110,000 compounds went through this assay and about 230 (0.21%) showed an effect of 50% or more. The list shows a part of the results.

Each compound was assayed against DPAP1 (Plasmodium falciparum, UniProt Q8IIJ9) (assay: primary screen, percent inhibition; read by cleavage of a fluorogenic dipeptide substrate; higher = more effect of the substance).
Set-up: species or system P. falciparum D10 trophozoite lysates; single well
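Also: 30 min substrate incubation versus DMSO and 10 µM JCP410 controls.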

DPAP1, sequence (Q8IIJ9 whole entry, looked up): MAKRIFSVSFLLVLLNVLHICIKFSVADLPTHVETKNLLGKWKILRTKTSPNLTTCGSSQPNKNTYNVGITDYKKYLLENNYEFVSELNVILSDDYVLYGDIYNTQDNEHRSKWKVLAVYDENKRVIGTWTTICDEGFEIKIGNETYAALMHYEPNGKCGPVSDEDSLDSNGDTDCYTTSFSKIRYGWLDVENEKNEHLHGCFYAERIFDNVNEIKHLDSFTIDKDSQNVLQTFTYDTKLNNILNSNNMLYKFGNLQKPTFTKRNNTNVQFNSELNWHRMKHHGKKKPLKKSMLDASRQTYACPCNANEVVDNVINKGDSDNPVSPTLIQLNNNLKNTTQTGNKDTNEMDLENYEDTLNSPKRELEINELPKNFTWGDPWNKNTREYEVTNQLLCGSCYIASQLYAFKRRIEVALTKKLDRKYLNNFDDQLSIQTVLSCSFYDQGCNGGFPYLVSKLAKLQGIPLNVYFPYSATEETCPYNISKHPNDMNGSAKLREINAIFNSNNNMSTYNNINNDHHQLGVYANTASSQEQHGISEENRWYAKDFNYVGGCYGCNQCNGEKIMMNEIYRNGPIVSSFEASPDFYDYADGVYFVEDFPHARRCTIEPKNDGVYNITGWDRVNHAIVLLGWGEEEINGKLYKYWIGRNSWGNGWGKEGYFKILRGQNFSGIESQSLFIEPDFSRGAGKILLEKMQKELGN

Structure (SMILES) | % Inhibition @ 10 uM
Cc1ccccc1OC(C)C(=O)Nc1ccc(Cl)cc1 (centres unmarked) | 0.795%
CCOc1ccc(S(=O)(=O)Nc2ccccc2C(=O)NC(C)CC)cc1 (centres unmarked) | -1.02%
CC(CCN1CCN(C=O)CC1)c1ccccc1 (centres unmarked) | 1.9%
NS(=O)(=O)c1cc([N+](=O)[O-])c(O)c2ccccc12 | -4.35%
O=C(CN1C(=O)S/C(=C/c2cccnc2)C1=O)N1CCOCC1 | 3.99%
CCc1ccc(Cc2cnc(NC(=O)C3Cc4ccc(C)cc4C(=O)O3)s2)cc1 (centres unmarked) | 3.54%
O=C(Cn1ncn2c(cc3ccccc32)c1=O)NCCc1ccc(Cl)cc1 | 3.29%
COc1cccc(C(=O)N2CCN(C(=O)c3ccc(F)cc3)CC2)c1 | 1.01%
CC1(C)CC(=O)C(C(c2cc3c(cc2Br)OCO3)C2C(=O)CC(C)(C)CC2=O)C(=O)C1 | 1.4%
O=C(CN1C(=O)CSc2ncccc21)NCCCc1ccccc1 | 1.03%
CSc1nc(Oc2cc(C)cc(C)c2)cc(-n2nc(C)c(C#N)c2N)n1 | 0.674%
CCN(CC)C(=O)c1ccc(/N=C/c2c(C)nn(-c3ccc(C)cc3)c2O)cc1 | 2.69%
O=C1OC(c2ccc(-c3ccccc3)cc2)=N/C1=C\c1cccs1 | -1.33%
Cc1ccccc1-n1nnc(-c2nc(-c3ccccc3)no2)c1N | 0.868%
CS(=O)(=O)N(CC(=O)NC1CCCCCC1)c1cccc(F)c1 | 4.06%
COc1ccccc1-n1nc(C)cc1N | 2.57%
COc1ccc(-c2noc(CNC(=O)Cc3ccc(-c4ccccc4)cc3)n2)cc1 | 0.486%
Cc1ccc(OCC(=O)Nc2nonc2NC(=O)COc2ccc(C)cc2C)c(C)c1 | -1.11%
COc1ccc(C2=NOC(C(=O)NC(C)(C)C)C2)cc1 (centres unmarked) | -1.7%
O=S(=O)(NCCc1c[nH]c2ccccc12)c1ccc(S(=O)(=O)N2CCOCC2)cc1 | 0.503%
COc1cc(NC(=O)c2ccc(N(C)C)cc2)c(OC)cc1NC(=O)c1ccc(N(C)C)cc1 | 1.15%
Cc1ccc(OCC(=O)Nc2cccc(Cl)c2C)cc1 | -3.52%

Structure (SMILES) | % Inhibition @ 10 uM
Cn1cnc2c1c(=O)n(CCn1c(=O)c3c(ncn3C)n(C)c1=O)c(=O)n2C | 3.54%
O=C(NCCCN1CCCC1=O)C1CCN(C(=O)c2cnn(-c3ccccc3)c2-n2cccc2)CC1 | 3.4%
CC(=O)Nc1ccc(NC(=O)CN(c2cccc(C(F)(F)F)c2)S(=O)(=O)c2ccccc2)cc1 | 12.7%
COC(=O)c1cc2ccsc2n1Cc1cccc(OC)c1 | -6.24%
O=C1c2ccccc2C(=O)N1c1cc(Cl)cc(Cl)c1 | -4.08%
Cc1onc(-c2ccccc2)c1C(=O)Nc1cc(Cl)cc(Cl)c1 | -3.97%
COCCNC(=O)c1noc2c1COc1ccccc1-2 | 60%
COc1ccc(NC(=O)CCCCCN2C(=O)c3ccccc3C2=O)c2ccccc12 | -4.33%
Cc1cc(NC(=O)CC(CN(C)S(=O)(=O)c2ccc(Br)cc2)c2ccccc2)no1 (centres unmarked) | -0.834%
CC1(O)CCCCC1(C)S(=O)(=O)c1ccccc1 (centres unmarked) | 7%
Cc1ccc(Cl)cc1-n1c(C)cc(/C=C2/C(=N)N3C(=NC2=O)SN=C3S(C)(=O)=O)c1C | 1.85%
Cc1ccc(-c2cc(C(F)F)n3ncc(C(=O)n4c(C)nc5ccccc54)c3n2)cc1 | 50%
O=C(c1ccc(Br)o1)N1CCCCCC1 | 0.986%
CC(C)(C)c1ccc(OCCCCN2CCCC2)cc1 | -5.84%
O=C(O)c1ccc(CN2CCSCC2)cc1 | 4.04%
CC1CCCCN1CCCNC(=O)c1cc2c(s1)-c1ccccc1SC2 (centres unmarked) | -2.16%
CCOc1ccc(NC(=O)CCCc2ccc(OC)cc2)cc1 | 2.36%
CNC(=S)NCCc1c[nH]c2ccc(OC)cc12 | 4.55%
O=C(Nc1ccc(Cl)cc1)N1CC=CCC1 | 1.29%
CCc1ccccc1NC(=O)CN(c1ccccc1OC)S(=O)(=O)c1ccccc1 | -3.78%
CC1CCCCC1NC(=O)CCn1nc(-c2ccccc2)ccc1=O (centres unmarked) | -1.79%
CCOc1ccccc1CNC(=O)CCCN1C(=O)CSc2ncccc21 | -1.6%

Structure (SMILES) | % Inhibition @ 10 uM
NCCC12CC3CC(C1)CC(C(=O)O)(C3)C2 | -0.807%
O=C(c1cnn2c1NC(c1ccc(Br)cc1)CC2C(F)(F)F)N1CCN2CCCC2C1 (centres unmarked) | 0.76%
CSc1nc(O)c2c(n1)N=C1CCCC(O)=C1C2c1cccs1 (centres unmarked) | -8.38%
COc1ccc(C(=O)Nc2ccc(NC(C)=O)cc2)cc1OC | -2.85%
C=CCNC(=O)COCc1cc(-c2ccc3c(c2)OCO3)on1 | -3.81%
COc1ccc(NC(=O)/C(=C/c2ccccc2)NC(=O)c2ccc(Br)o2)cc1 | -4.49%
Cc1ccc(-c2cc(-c3ccccc3)nc(N3CCNCC3)n2)cc1 | 7.4%
CN(C)CCCn1c(=O)n(C)c(=O)c2[nH]cnc21 | -1.22%
O=C(Nc1cccnc1)c1ccc2ccccc2c1O | 7.51%
O=S(=O)(c1ccc(-c2csc(Nc3cccc4ccccc34)n2)cc1)N1CCCC1 | 5.29%
Cc1csc(NC(=O)C(=O)c2cc(C)n(-c3ccc(C)c(C)c3)c2C)n1 | 2.32%
O=C(NC1CCCCCC1)C1CCCN(S(=O)(=O)c2ccc3nc(O)ccc3c2)C1 (centres unmarked) | -7.74%
COc1nc2ccccc2cc1-c1noc(-c2ccc(Cl)cc2)n1 | -2.62%
CC(C)CN1CC23C=CC(O2)C(C(=O)O)C3C1=O (centres unmarked) | -2.98%
CCC1(CC)C(=O)NC(=O)N=C1Nc1cccc(Cl)c1 | 2.24%
Nc1nnc(CC2=CCCCC2)s1 | 4.26%
CCN1CCC(N(Cc2ccco2)C(=O)NC2CCCC2)CC1 | 1.46%
CCNS(=O)(=O)c1ccc(CCC(=O)N2CCN(C(=O)OCC)CC2)cc1 | -3.75%
Cc1ccc(S(=O)(=O)NCC(C)NC(=O)CN2CCOCC2)cc1 (centres unmarked) | -3.13%
Cc1nc2c(c(C)c1CCC(=O)N1CC=C(c3ccccc3)CC1)c(=O)n(C)c(=O)n2C | 5.32%
Cn1c(=O)c2c(-c3ccccc3Br)n(CC(=O)c3ccccc3)cc2n(C)c1=O | 0.758%
